The source gives no read counts; variants with many changes may rest on few reads.
B1: LINE1-mini (parent)
chain: GGCAGAGCUCAACACAGCGUGGCAAAGUGGCUGUGGCUAGACUGCC

Variants of: B1
Experiment: self-cleavage, relative activity (ratio to wild type); higher = more cleavage; in vitro, sequencing; the parent is a self-cleaving ribozyme

| Variant | self-cleavage |
| --- | --- |
| GGCAGAGGUCAACACAGCGUUGCAAAGUGGCUGUAGCUAGACUCCC | 0.03 |
| GGCAGAGGGCAACCCAGCGUGGCAAAGUGGAUGUGGCUAAACUGCC | 0.02 |
| GGCAGAGGUCAACAUAGCGUUGCAAAGAGGCUGUGGCUUUACUGCC | 0.02 |
| GGCAGAGGUCAACACAGCUUGGCAAAGUGGGUGUGGCUAGACUGCC | 0.11 |
| GGCAGAGGUCAACACAGCGUGGCAAAUUGGAUGUGGCUAGACAGCC | 0.05 |
| GGCAGAGGUCAACACAUCGUGGAAAAGUGGCUGUGGCUAGACUGCC | 0.01 |
| GGCAGAGGUCAACACAGCGUGGCAAAGUGGCUGUGGCUAAACGGCC | 0 |
| GGCAGAGGUCAACACAGAGUGGGAAAGUAGCUGUGGCUAGACUGCC | 0.03 |
| GGCAGAGGUCAACACAGCGUGGCAAAGUAGCUGUGGCUAGGCUGCC | 0.02 |
| GGCAGAGGUCAACACAGAGUGGCAAAGGGGCUGUGGCUAGACUUCC | 0.01 |
| GGCAGAGGUCAACACAGCGUGGCAAAGUGGCUGUGGCUACCCUGCG | 0.01 |
| GGCAGAGUUCAACGCAGGGUGGCGAAGUGGAUGUGGCUAGACUGCC | 0.07 |
| GGCAGAGGUCAACACAGCGUGGACAAGUGGCUGUGGCUAGACUGCC | 0.12 |
| GGCAGAGUUCACCACAGCGUGGCAAAGUGUCUGUGGCUAGACUGCC | 0.02 |
| GGCAGAGGUCAACACAGCGUGGCAAAGUGUCUGUGGCAAGACUGCU | 0.06 |
| GGCAGAGGUCAACACAGCGAGGCAAAGUGGCGGUUGGUAGACUGCC | 0.04 |
| GGCAGAGUUCUACACAGCGUGGCAAAGUGGCUGAGUCUAGAAUGCC | 0.02 |
| GGCAGAGGUCAACACAGCUUGUCAAAGGGGCUGUGGCUUGACUGCC | 0 |
| GGCAGAGGUCAACACAGCCUGGCUAAGUGGCUGUGGCUAGACUGCC | 0.01 |

| Variant | self-cleavage |
| --- | --- |
| GGCAGAGUUCACCACAGCGUAGCAAAGUGGCUGUGGCUAGACUGCC | 0.05 |
| GGCAGAGGUCAACACAGCCUGGCAAAGUGGCUGUGGGUAGACUGCC | 0.04 |
| GGCAGAGUUCAUCACAGCGUGCCAAAGUGGAUGUGGCUAAACUGCC | 0.02 |
| GGCAGAGGUCAACACAGCGUGGCAAAGUGGCUGUGGAUAGACUGAC | 0.02 |
| GGCAGAGUUCACCACAGCGUGGAAAAGUGGCUGUGGCUAGACUGCU | 0.02 |
| GGCAGAGGUCAACACAGCGCGGUAAAGUGGGUAUGGCUAGACUCCC | 0.07 |
| GGCAGAGGUCAACACAGCGUUGCAAAGUGGCAUUGGCUAGACUGCU | 0.05 |
| GGCAGAGUUCAUCGCAGCGUGGCAAAGUGGCUGUGGCUAGACUGCC | 0.18 |
| GGCAGAGUUCGACACAGCGUGGAAAUGUGGCUGUGGCUAGACCGCC | 0.02 |
| GGCAGAGGUCAACACAGAGUGGCAAAAUGACUGUGGCUAGACUGCC | 0.2 |
| GGCAGAGGUCAACACAGCGUGGCAAAGUGACUGCUGCUAGACUGCC | 0.08 |
| GGCAGAGGUCAACACAGCGUGACAAGCUGGCUAUGGCUACACUGCC | 0.03 |
| GGCAGAGUUCAACGCAGCGUGGCAUAGUGGCUAUGGCUAGACUGCC | 0.3 |
| GGCAGAGGUCAACACAGCGUGGCAAAGUGGGCGUGGCUAAACUGCC | 0.03 |
| GGCAGAGUUCAGCACAGCGUGCCAAAGUGGCUGUGGCUAGACUGCC | 0.02 |
| GGCAGAGUUCUACCCAGCGUGUCAAAGUGGCUGUGGCUAGACUGCC | 0.01 |
| GGCAGAGGUCAACACAGCGUGGCAAAGUGGCGGUGGCUAGACAGCC | 0.03 |
| GGCAGAGGUCAACACAGCGUGGCAAAGUGGCAGUAGCUAGACUGCA | 0 |
| GGCAGAGGUCAACACAGCGUGGUAAAGUGGCUGUGACUAGACUGCA | 0.06 |

| Variant | self-cleavage |
| --- | --- |
| GGCAGAGGUCAACACAGCGCGGCAAAGCGGCUGUGGCUAGACUGCC | 0.02 |
| GGCAGAGGUCAACACAGCGUGGCAAAGUGGCCGUGGCUUGCCUGCC | 0.11 |
| GGCAGAGGUCAACACAGCGUGGCAAAGUGGCUUUGGCUAGUCUGCC | 0.02 |
| GGCAGAGGUCAACACAGCCUGGCAAAGUGGCUGUGACUAGACUGCC | 0.07 |
| GGCAGAGGUCAACACAGCGUUCCAAAGUGGCUGUGGCUAGACUGCC | 0.09 |
| GGCAGAGGUCAACACAGCGUGGCAAAGUGGCUGUGGCUAGAACGCC | 0.37 |
| GGCAGAGGUCAACACAGCGUUGCAAAGUGGCUGUGGCUAGAGUGCC | 0.06 |
| GGCAGAGGUCAACACAGCGUGGCAAAGUGGCUGUGGUUGGACUGCC | 0 |
| GGCAGAGGUCAACACAGCGUGGCAAAGUUGCCGUGGCUAGAUUGCC | 0.03 |
| GGCAGAGGUCAACACAGCGAGGCAAAGUGGCUGUGGUUAGACUGCC | 0.03 |
| GGCAGAGGUCAACACAGCGUAGCAAAGUGGCUGUGGCUAGUCUGCC | 0.09 |
| GGCAGAGGGCAAUACGGCUUGGCAAAGUGUCUGUGGCUAGACUGCC | 0.03 |
| GGCAGAGUUCAACGCAGCGUGGCAAAGUGGCUGUGGCUAGACUGAC | 0.04 |
| GGCAGAGUUCAACGCAGCGUGGCAAAGUGGCUGUUGCUAGACUGCC | 0.09 |
| GGCAGAGGUCAACACAGCGUGGAAGAGCUGCUGUGGUUAAACUGCC | 0.04 |
| GGCAGAGGUCAACAUAGCUUGGCAAAGUGGCUGUGGCUAGACUGCC | 0.02 |
| GGCAGAGUUCGACACAGAGAGGAAAAGUGGCUGUGGCUAGACUGCC | 0.02 |
| GGCAGAGGUCAACACAACGUGGCAAAGGGGCUGUGGCUAGACUGCC | 0.06 |

— the RNAGym collection of RNA variant scans (doi:10.7554/elife.90254)
